Out of some 310,000 compounds screened, about 14,000 (4.5%) showed an effect of 50% or more. The effect is printed as a negative number. The list shows a part of the results.

Results on 89 molecules are retold here after paper PMC4336329 (PLoS ONE, 2015).
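Note: peak tail current of the secondary pulse compared with the same well before compound.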

In this experiment the target is human ether-à-go-go-related gene (hERG) potassium channel (human, UniProt Q12809). Put plainly: primary screen, population patch clamp on CHO cells stably expressing hERG.
Chain of human ether-à-go-go-related gene (hERG) potassium channel (Q12809 whole entry, looked up): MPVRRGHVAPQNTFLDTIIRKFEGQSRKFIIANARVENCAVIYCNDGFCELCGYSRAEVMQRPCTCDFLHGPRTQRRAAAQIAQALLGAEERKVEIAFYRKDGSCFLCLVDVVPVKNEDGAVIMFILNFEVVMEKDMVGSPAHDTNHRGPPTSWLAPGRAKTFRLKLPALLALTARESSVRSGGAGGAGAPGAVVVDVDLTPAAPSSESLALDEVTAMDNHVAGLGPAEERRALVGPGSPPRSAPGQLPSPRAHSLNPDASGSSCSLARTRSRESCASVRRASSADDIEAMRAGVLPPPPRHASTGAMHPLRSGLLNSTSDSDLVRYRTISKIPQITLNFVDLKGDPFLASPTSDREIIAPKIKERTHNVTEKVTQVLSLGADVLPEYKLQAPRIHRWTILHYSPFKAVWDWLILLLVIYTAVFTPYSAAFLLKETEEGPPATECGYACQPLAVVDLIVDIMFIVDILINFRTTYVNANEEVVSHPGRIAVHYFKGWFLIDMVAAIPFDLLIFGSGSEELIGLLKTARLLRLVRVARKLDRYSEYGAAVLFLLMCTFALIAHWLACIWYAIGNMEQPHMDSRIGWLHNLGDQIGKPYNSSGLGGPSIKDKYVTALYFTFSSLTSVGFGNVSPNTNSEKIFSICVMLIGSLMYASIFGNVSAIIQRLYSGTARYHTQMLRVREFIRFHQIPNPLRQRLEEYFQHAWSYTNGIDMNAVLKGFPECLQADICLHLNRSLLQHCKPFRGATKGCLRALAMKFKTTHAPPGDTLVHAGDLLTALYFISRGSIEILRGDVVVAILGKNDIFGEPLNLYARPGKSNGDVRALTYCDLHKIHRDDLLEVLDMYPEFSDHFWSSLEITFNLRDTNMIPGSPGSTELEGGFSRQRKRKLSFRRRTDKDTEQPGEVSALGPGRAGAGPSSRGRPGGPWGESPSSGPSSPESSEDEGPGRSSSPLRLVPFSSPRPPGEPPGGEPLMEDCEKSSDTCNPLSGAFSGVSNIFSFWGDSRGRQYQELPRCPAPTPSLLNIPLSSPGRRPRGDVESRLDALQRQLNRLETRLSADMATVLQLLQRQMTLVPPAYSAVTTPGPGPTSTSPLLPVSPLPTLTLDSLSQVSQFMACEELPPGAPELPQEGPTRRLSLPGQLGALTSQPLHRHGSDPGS
In the case of `Cc1ccc(NC(=O)c2cc(-c3ccccc3)n(CCCN3CCOCC3)c2C)cc1`, the “hERG current change (%, negative = inhibition) at 10uM” value is given as -35.6%.

For `CCCC1C2C(=O)N(c3ccccc3OC)C(=O)C2ON1c1ccccc1` (centres unmarked), the “hERG current change (%, negative = inhibition) at 10uM” value came out at 2.27%. Consider `O=C(CCc1nc(-c2ccccc2)no1)N1CCCC1`, for which the “hERG current change (%, negative = inhibition) at 10uM” value came out at 9.62%. In the case of `CCc1ccccc1NC(=S)N(CCCN1CCOCC1)Cc1ccccn1` it was -25.8%; in that of `CN(CC(=O)Nc1ccccc1Cl)C(=O)C1CSC2(C)CCC(=O)N12` (centres unmarked), -5.11%.

Regarding `O=c1[nH]c(C(Cl)(Cl)Cl)nc2ccc3ccccc3c12`, the “hERG current change (%, negative = inhibition) at 10uM” value is listed as 12.8%. In the case of `O=C(NCCN1CCOCC1)c1sc2cc(Cl)ccc2c1Cl` it was -10.3%; in that of `CCCn1ccnc1SCC(=O)Nc1c(C)n(C)n(-c2ccccc2)c1=O`, -13.3%. As to `CCOC(=O)Nc1cccc(OCC(=O)Nc2ccc(OC)cc2OC)c1`, the “hERG current change (%, negative = inhibition) at 10uM” value is on record as 2.2%.

Turning to `CCOCCCn1c(C)nc2c[n+](CC(=O)c3ccc4ccccc4c3)cc(Br)c21.[Br-]`, the “hERG current change (%, negative = inhibition) at 10uM” value is -0.936%. In the case of `Cc1cccc(Sc2ccc([N+](=O)[O-])cc2[N+](=O)[O-])n1` it was 16.1%; in that of `CCOC(=O)c1sc(=NC(=O)c2cccc(OC)c2)n(C)c1C`, -9.59%; in that of `CC(=O)c1cccc(NC(=S)NC(=O)Cc2ccc(Cl)cc2)c1`, 21.2%.

In the case of `CCCCOC(=O)/C=C/c1ccc(OC(=O)OC)c(OC(=O)OC)c1`, the “hERG current change (%, negative = inhibition) at 10uM” value was found to be 2.74%. Next, `O=C(NCCCN1CCC(Cc2ccccc2)CC1)c1ccc2nc(N3CCOCC3)sc2c1`: -66.2%.

`CCCCn1nnnc1SCC(=O)Nc1cccc(C)c1`: the “hERG current change (%, negative = inhibition) at 10uM” value is -6.44%.

As for `CCN(CC(=O)NC(C)(C)C)C(=O)c1ccc2c(c1)S(=O)(=O)c1ccccc1C2=O`, the “hERG current change (%, negative = inhibition) at 10uM” value was 11.2%. Next, `CCCN=C1N/C(=C\c2ccco2)C(=O)N1c1ccccc1`: 11%; `O=C(O)c1ccc(S(=O)(=O)c2ccccc2C(=O)O)c([N+](=O)[O-])c1`: 27.3%. In the case of `Cl.O=C1CN=C(Nc2cccc(C(F)(F)F)c2)N1C1CCCC1` it was 2.27%; in that of `O=C(NCC1CCCO1)C1CCN(C2CCN(Cc3cccs3)CC2)CC1` (centres unmarked), -64.2%. Next, `c1ccc(N2CCN(Cc3ccnc4ccccc34)CC2)cc1`: -0.764%; `C/C(=N\NC(=O)c1ccccc1)C1C2C=CC(C2)C1(C)C` (centres unmarked): 7.67%; `CCc1ccc(S(=O)(=O)Nc2ccc(-c3nc4cccnc4s3)cc2)s1`: 8.24%.

As for `CCO.CCSc1nc2ccccc2c(=O)n1-c1c(C)n(C)n(-c2ccccc2)c1=O`, the “hERG current change (%, negative = inhibition) at 10uM” value is reported as 5.74%.

`CCCCCNc1nc(-c2ccccc2)cs1`: the “hERG current change (%, negative = inhibition) at 10uM” value came out at 9.41%.

With `O=C(NNC(=O)c1cc(-c2ccccc2)n(-c2ccccc2)n1)c1cccc([N+](=O)[O-])c1`, the “hERG current change (%, negative = inhibition) at 10uM” value is -34.2%. Next, `O=C(CSc1n[nH]c(=O)[nH]c1=O)c1ccc(Cl)cc1Cl`: 16.1%. Next, `CC(C)(C)NC(=O)[C@@H]1C[C@@H]2CCCC[C@@H]2CN1C[C@@H](O)[C@H](Cc1ccccc1)NC(=O)[C@H](CC(N)=O)NC(=O)c1ccc2ccccc2n1`: -9.59%; `CCc1nc(SCC(=O)Nc2nnc(CC)s2)c2c(C)c(C)sc2n1`: 8.99%. Next, `CC(C)C(O)(C#CCN1CCCCCC1)c1ccccc1.Cl` (centres unmarked): -33.1%; `Cc1ccc(-n2nc3c(c2NC(=O)c2ccco2)CS(=O)(=O)C3)c(C)c1`: -11.9%; `COc1ccc(C(=O)CSc2nnc(Cc3ccccc3)o2)cc1`: -4.54%. With `C=CCNC(=O)c1ccccc1NS(=O)(=O)c1ccccc1`, the “hERG current change (%, negative = inhibition) at 10uM” value is listed as -10%.

Regarding `Cc1ccc(CN2[C@@H]3c4ccccc4C[C@@H]3OCCS2(=O)=O)cc1`, the “hERG current change (%, negative = inhibition) at 10uM” value was 3.84%. Next, `O=C(N/N=C/c1ccco1)c1cc([N+](=O)[O-])cc([N+](=O)[O-])c1`: 6.85%; `O=Cc1ccc(C(=O)OCC(=O)Nc2ccc(F)cc2F)cc1`: 21.5%; `CC(C(=O)Nc1ccc(Cl)cc1)N(C)Cc1cccs1` (centres unmarked): -15%. Take `Cc1nn(-c2ccccc2)c(C)c1/C=C1\C(=O)N(C)C(=S)N1C`: the “hERG current change (%, negative = inhibition) at 10uM” value is recorded as -11.2%. On to `CCC(C(=O)O)n1nnc(-c2ccc(OCc3ccccc3)c(OC)c2)n1` (centres unmarked), for which the “hERG current change (%, negative = inhibition) at 10uM” value came out at 14.6%. Next, `CCCCNC(=S)N/N=C1\CCCCc2ccccc21`: -64.4%; `CC(=O)NC(Cc1ccc(N(CCCl)CCCl)cc1)C(=O)NCC(=O)NCC(=O)O` (centres unmarked): 31.5%; `Nc1ccc2nc(SCc3ccc([N+](=O)[O-])cc3)sc2c1`: -3.42%. In the case of `O=C(COC(=O)/C=C/c1ccc(C(F)(F)F)cc1)NC1CC1` it was 2.16%; in that of `CCOC(=O)c1c(S(=O)(=O)NCC(=O)N2CCN(c3ccccc3OC)CC2)c(C)n(C)c1C`, 1.37%; in that of `CC(C)C(=O)Nc1ccc(C(=O)NNC(=O)c2cccs2)cc1`, 6.39%. In the case of `CCn1c(SCC(=O)Nc2nc(C)c(C)s2)nnc1-c1cccs1` it was -73.4%. For the molecule `O=C(COC(=O)c1c[nH]c(=O)[nH]c1=O)Nc1cccc([N+](=O)[O-])c1`, the “hERG current change (%, negative = inhibition) at 10uM” value was 1.39%. Next, `O/N=C1\CC2(Cc3nonc31)OCCO2`: 16.6%; `CC1CCCCN1C(=O)C1COc2ccccc2O1` (centres unmarked): 13.5%; `O=Cc1c(N2CCN(c3cccc(Cl)c3)CC2)nc2ccccn2c1=O`: -42.4%. In the case of `Cc1onc(-c2ccccc2)c1C(=O)N/N=C/c1ccc(Br)cc1` it was 9.02%; in that of `O=C(Nc1ccc2c(c1)OCO2)C1CCCN(S(=O)(=O)c2cccs2)C1` (centres unmarked), 10.7%. In the case of `O=C1CN(C(=O)c2ccc(Cl)nc2)c2ccccc2N1` it was 21.3%. For `CN1C(c2ccccc2)=NO[C@]1(C)c1ccccc1`, the “hERG current change (%, negative = inhibition) at 10uM” value is recorded as -1.7%. On to `Cc1cc(N2CCN(c3ccccc3)CC2)nc(-c2ccccc2O)n1`, for which the “hERG current change (%, negative = inhibition) at 10uM” value stood at 6.15%. Next, `NS(=O)(=O)c1ccc(NC(=O)CSc2nnc(C3CC3)n2C2CC2)cc1`: 22%. Next, `CCc1ccc(CCC(=O)Nc2sc3c(c2C#N)CCCC3)o1`: 6.21%; `COc1cc2nc(SCc3c(C)noc3C)n(CCC3=CCCCC3)c(=O)c2cc1OC`: 16%; `CCOc1cc(Cl)c(NC(=O)c2ccco2)cc1OCC`: 19.9%. For the molecule `CCOc1ccc(N2C(=O)c3ccccc3C2=O)cc1`, the “hERG current change (%, negative = inhibition) at 10uM” value was found to be 13.7%. In the case of `c1ccc(Nc2ncnc3sccc23)cc1`, the “hERG current change (%, negative = inhibition) at 10uM” value amounted to 10.4%.

For the molecule `CC(C)CC(=O)Nc1ccc(C(=O)Cn2nc(C(=O)O)c3ccccc3c2=O)cc1`, the “hERG current change (%, negative = inhibition) at 10uM” value is listed as -26%.

On to `CN(C)c1ccc(CN(C(=O)COc2ccccc2)C2CCS(=O)(=O)C2)cc1` (centres unmarked), for which the “hERG current change (%, negative = inhibition) at 10uM” value is given as -10.9%. Next, `COc1cc(NC(=O)C2CCN(S(=O)(=O)c3cccc4nonc34)CC2)cc(OC)c1`: 9.67%.

Take `CCOC(=O)C1CCN(C(=O)CC(NS(=O)(=O)c2ccc(OC)cc2)C(C)C)CC1` (centres unmarked): the “hERG current change (%, negative = inhibition) at 10uM” value is listed as -8.36%.

As for `Cc1ccc(S(=O)(=O)N2CCCC(C(=O)NCCC3=CCCCC3)C2)cc1` (centres unmarked), the “hERG current change (%, negative = inhibition) at 10uM” value is -4.03%. Take `O=C(Nc1cccc2ncccc12)c1ccco1`: the “hERG current change (%, negative = inhibition) at 10uM” value is recorded as 27%. In the case of `N/C(=N\OC(=O)c1ccc(F)cc1)c1ccc(Br)cc1` it was 15.4%; in that of `CCOC(=O)c1cc([N+](=O)[O-])sc1NC(=O)c1ccc(S(=O)(=O)N2CC3(C)CC2CC(C)(C)C3)cc1` (centres unmarked), 0.391%; in that of `Cc1cccc(OCC(O)Cn2c(=N)n(Cc3ccccc3)c3ccccc32)c1.Cl` (centres unmarked), -71%.

With `O=C(Cn1nc(-c2ccccc2)c2ccccc2c1=O)NCCO`, the “hERG current change (%, negative = inhibition) at 10uM” value is recorded as 10%.

For the molecule `CCC(CO)N=CC1=C(O)C(C(=O)c2ccccc2)CCC1=O` (centres unmarked), the “hERG current change (%, negative = inhibition) at 10uM” value was 4.2%. As to `COc1c(N2CCN(C(=S)Nc3ccccc3F)C(C)C2)c(F)cc2c(=O)c(C(=O)O)cn(C3CC3)c12` (centres unmarked), the “hERG current change (%, negative = inhibition) at 10uM” value is recorded as -8.57%. Next, `CS(=O)(=O)N1N=C(c2ccco2)CC1c1ccco1` (centres unmarked): 1.13%; `Nc1nnc(Cc2cccc(Br)c2)s1`: 3.51%.

With `Cc1ccc[n+](CC(=O)c2ccc(Br)cc2)c1.[Br-]`, the “hERG current change (%, negative = inhibition) at 10uM” value was -4.27%. Next, `CCCCc1nc2cc(C(=O)NCCc3cnn(C)c3)ccc2o1`: 4.17%; `Cc1cccc(-c2nc(CS(=O)CC(=O)NC3CCCCC3)c(C)o2)c1` (centres unmarked): -3.93%.

As for `O=C(/C=C/c1ccc(Cl)cc1Cl)c1nc2ccccc2[nH]1`, the “hERG current change (%, negative = inhibition) at 10uM” value was 27.8%. Consider `O=C(CCCOc1ccccc1)N1CCN(c2ccccn2)CC1`, for which the “hERG current change (%, negative = inhibition) at 10uM” value is -8.9%.

Turning to `CCOc1ccc(CCNC(=O)CN2C(=O)c3cccnc3Oc3ccc(Cl)cc32)cc1`, the “hERG current change (%, negative = inhibition) at 10uM” value was -17.7%. Next, `Cc1cnc(C(=O)Nc2ccc3c(c2)CCC3)cn1`: 6.1%.

With `Cc1cccc(C)c1OCC(O)CNC(C)(C)C.Cl` (centres unmarked), the “hERG current change (%, negative = inhibition) at 10uM” value worked out at 10.4%. In the case of `O=[N+]([O-])c1ccc(N2CCCCC2)cc1N1CCOCC1` it was -11.3%; in that of `CC(Oc1ccc(Cl)cc1Cl)C(=O)NNC(=O)C(=O)N1CCCC1` (centres unmarked), 2.52%; in that of `Cc1ccc(C)c(NC(=O)Nn2cnnc2)c1`, 7.96%. Next, `O/N=C1\CCCc2nnc3c(c21)CCCC3`: 15.8%; `Br.Cn1c(=N)n(CC(=O)C(C)(C)C)c2ccccc21`: -31%.
